# Values joined by “and” are separate entries in the source; they are usually repeats but may differ in a detail not shown here. Identical values can stand only once. ± gives the standard deviation of the averaged measurements. The full ranking holds about 2,900 compounds; the median of “IRF Lucia reporter activity, fold change vs agonist alone” is about 0.9, and the highest 2% start at about 2.8. The list shows a part of the results.
# Legend:
# RAW-Dual [1] = assay: IRF Lucia reporter activity, fold change vs agonist alone; higher = enhanced IRF activity; settings: agonist: MPLA (TLR4) […]
# Outline: (§1)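 RAW-Dual macrophages were seeded in DMEM at 50,000 cells/well in 384-well plates, given 50 nL of library stock by pin tool, and given a PRR agonist 1 h later. Plates were held at 37 °C, 5% CO2 for 20 hours, after which supernatant was read for IRF by QuantiLuc luminescence and for NF-κB by QuantiBlue absorbance at 620 nm. Reporter activity is expressed as fold change over wells that received agonist alone. A well was called cytotoxic when IncuCyte confluency fell below 70% of agonist controls in both mask sets.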
# RAW-Dual [2] = assay: IRF Lucia reporter activity, fold change vs agonist alone; cytotoxicity flag (confluency mask): cytotoxic (confluency <70% of control); higher = enhanced IRF activity
# Outline: as §1
# RAW-Dual [3] = assay: IRF Lucia reporter activity, fold change vs agonist alone; cytotoxicity flag (confluency mask): not cytotoxic; higher = enhanced IRF activity
# Outline: as §1
# [4] = agonist: 3'3'-cGAMP (STING) 10 ug/mL
# [5] = library stock concentration (final ~1000-fold dilution): 10 mM, cytotoxicity flag (confluency mask): not cytotoxic
smiles,measurement,setting,value
CCOc1cc(C(=O)N2CCC(N3CCN(C)CC3)CC2)ccc1Nc1ncc2c(n1)N(C1CCCC1)c1ccccc1C(=O)N2C,IRF Lucia reporter activity,"RAW-Dual [1]; library stock concentration (final ~1000-fold dilution): 10 mM, cytotoxicity flag (confluency mask): cytotoxic (confluency <70% of control)",0.12
CCOc1cc(C(=O)N2CCC(N3CCN(C)CC3)CC2)ccc1Nc1ncc2c(n1)N(C1CCCC1)c1ccccc1C(=O)N2C (library stock concentration (final ~1000-fold dilution): 10 mM),IRF Lucia reporter activity,RAW-Dual [2]; [4],0.277
same,IRF Lucia reporter activity,RAW-Dual [2]; agonist: LPS (TLR4) 0.1 ug/mL,0.161
O=C(NOCCO)c1ccc2cncn2c1Nc1ccc(I)cc1F,IRF Lucia reporter activity,RAW-Dual [1]; [5],3.27
O=C(NOCCO)c1ccc2cncn2c1Nc1ccc(I)cc1F (library stock concentration (final ~1000-fold dilution): 10 mM),IRF Lucia reporter activity,RAW-Dual [3]; [4],0.814
same,IRF Lucia reporter activity,RAW-Dual [3]; agonist: LPS (TLR4) 0.1 ug/mL,3.65
O=c1cc(-c2ccc(O)c(O)c2)oc2cc(O)cc(O)c12,IRF Lucia reporter activity,RAW-Dual [1]; [5],0.357
O=c1cc(-c2ccc(O)c(O)c2)oc2cc(O)cc(O)c12 (library stock concentration (final ~1000-fold dilution): 10 mM),IRF Lucia reporter activity,RAW-Dual [3]; [4],0.107
same,IRF Lucia reporter activity,RAW-Dual [3]; agonist: LPS (TLR4) 0.1 ug/mL,0.118
C[N+]1(C)CCC[C@H]1C(=O)[O-] (library stock concentration (final ~1000-fold dilution): 10 mM),IRF Lucia reporter activity,RAW-Dual [3]; [4],0.978
same,IRF Lucia reporter activity,RAW-Dual [3]; agonist: LPS (TLR4) 0.1 ug/mL,1.09
CC1(C)C(C(=O)O)N2C(=O)CC2S1(=O)=O (stereo not given) (library stock concentration (final ~1000-fold dilution): 10 mM),IRF Lucia reporter activity,RAW-Dual [3]; [4],0.996 and 1.02
same,IRF Lucia reporter activity,RAW-Dual [3]; agonist: LPS (TLR4) 0.1 ug/mL,1.04 and 0.912
C=CC(=O)N1CCC(Oc2nc(Nc3ccc(N4CCC(N5CCN(C)CC5)CC4)cc3)c(C(N)=O)nc2CC)C1 (stereo not given) (library stock concentration (final ~1000-fold dilution): 10 mM),IRF Lucia reporter activity,RAW-Dual [2]; [4],0.0235
same,IRF Lucia reporter activity,RAW-Dual [2]; agonist: LPS (TLR4) 0.1 ug/mL,0.0192
O=C(Nc1ccc(Cl)cc1)C1CCCN(C(=O)c2cccc(-c3ccco3)c2)C1 (stereo not given) (library stock concentration (final ~1000-fold dilution): 10 mM),IRF Lucia reporter activity,RAW-Dual [3]; [4],0.684
same,IRF Lucia reporter activity,RAW-Dual [3]; agonist: LPS (TLR4) 0.1 ug/mL,0.658
CC1(C)CCC2(NC(=O)C(C)(F)F)CCC3(C)C(C(=O)C=C4C5(C)C=C(C#N)C(=O)C(C)(C)C5CCC43C)C2C1 (stereo not given) (library stock concentration (final ~1000-fold dilution): 10 mM),IRF Lucia reporter activity,RAW-Dual [2]; [4],0.00909 ± 0.0055
same,IRF Lucia reporter activity,RAW-Dual [2]; agonist: LPS (TLR4) 0.1 ug/mL,0.0119 ± 0.011
CC(C)N(CCCNC(=O)Nc1ccc(C(C)(C)C)cc1)CC1OC(n2cc(Br)c3c(N)ncnc32)C(O)C1O (stereo not given) (library stock concentration (final ~1000-fold dilution): 10 mM),IRF Lucia reporter activity,RAW-Dual [3]; [4],0.376
same,IRF Lucia reporter activity,RAW-Dual [3]; agonist: LPS (TLR4) 0.1 ug/mL,1.1
CC(C)N(CCCNC(=O)Nc1ccc(C(C)(C)C)cc1)CC1OC(n2cc(Br)c3c(N)ncnc32)C(O)C1O (stereo not given),IRF Lucia reporter activity,RAW-Dual [1]; [5],1.27
CCOCCn1c(N2CCCN(C)CC2)nc2ccccc21.O=C(O)/C=C/C(=O)O.O=C(O)/C=C/C(=O)O (library stock concentration (final ~1000-fold dilution): 10 mM),IRF Lucia reporter activity,RAW-Dual [3]; [4],1.05
same,IRF Lucia reporter activity,RAW-Dual [3]; agonist: LPS (TLR4) 0.1 ug/mL,0.996
CCOCCn1c(N2CCCN(C)CC2)nc2ccccc21.O=C(O)/C=C/C(=O)O.O=C(O)/C=C/C(=O)O,IRF Lucia reporter activity,RAW-Dual [1]; [5],1.22
Cc1ccc(-c2ncc(Cl)cc2-c2ccc(S(C)(=O)=O)cc2)cn1 (library stock concentration (final ~1000-fold dilution): 10 mM),IRF Lucia reporter activity,RAW-Dual [3]; [4],1.12
same,IRF Lucia reporter activity,RAW-Dual [3]; agonist: LPS (TLR4) 0.1 ug/mL,0.786
Cc1ccc(-c2ncc(Cl)cc2-c2ccc(S(C)(=O)=O)cc2)cn1,IRF Lucia reporter activity,RAW-Dual [1]; [5],1
CC(=O)NCC(=O)O.CC(=O)NCC(=O)O.N=C(N)c1ccc(N=NNc2ccc(C(=N)N)cc2)cc1,IRF Lucia reporter activity,RAW-Dual [1]; [5],1.08
CC(=O)NCC(=O)O.CC(=O)NCC(=O)O.N=C(N)c1ccc(N=NNc2ccc(C(=N)N)cc2)cc1 (library stock concentration (final ~1000-fold dilution): 10 mM),IRF Lucia reporter activity,RAW-Dual [3]; [4],1.09
same,IRF Lucia reporter activity,RAW-Dual [3]; agonist: LPS (TLR4) 0.1 ug/mL,1.37
O=C(c1cc(-c2cc3c(cc2C(=O)N2Cc4ccccc4CC2CN2CCOCC2)OCO3)n2c1CCCC2)N(c1ccccc1)c1ccc(O)cc1 (stereo not given) (library stock concentration (final ~1000-fold dilution): 10 mM),IRF Lucia reporter activity,RAW-Dual [3]; [4],0.268
same,IRF Lucia reporter activity,RAW-Dual [3]; agonist: LPS (TLR4) 0.1 ug/mL,0.935
NC12CC3CC(CC(C3)C1)C2,IRF Lucia reporter activity,"RAW-Dual [1]; library stock concentration (final ~1000-fold dilution): 2 mM, cytotoxicity flag (confluency mask): not cytotoxic",0.958
NC12CC3CC(CC(C3)C1)C2 (library stock concentration (final ~1000-fold dilution): 2 mM),IRF Lucia reporter activity,RAW-Dual [3]; [4],0.731
same,IRF Lucia reporter activity,RAW-Dual [3]; agonist: LPS (TLR4) 0.1 ug/mL,1.09
CC(C)(C)c1cc(C(=O)/C(C#N)=N/Nc2cccc(Cl)c2)no1,IRF Lucia reporter activity,RAW-Dual [1]; [5],0.675
CC(C)(C)c1cc(C(=O)/C(C#N)=N/Nc2cccc(Cl)c2)no1 (library stock concentration (final ~1000-fold dilution): 10 mM),IRF Lucia reporter activity,RAW-Dual [3]; [4],0.306
same,IRF Lucia reporter activity,RAW-Dual [3]; agonist: LPS (TLR4) 0.1 ug/mL,0.762
COC(c1ccccc1)(c1ccccc1)C(Oc1nc(C)cc(C)n1)C(=O)O (stereo not given) (library stock concentration (final ~1000-fold dilution): 10 mM),IRF Lucia reporter activity,RAW-Dual [3]; [4],1.11
same,IRF Lucia reporter activity,RAW-Dual [3]; agonist: LPS (TLR4) 0.1 ug/mL,1.06
COC(c1ccccc1)(c1ccccc1)C(Oc1nc(C)cc(C)n1)C(=O)O (stereo not given),IRF Lucia reporter activity,RAW-Dual [1]; [5],1.07
Cc1cc(=O)n(-c2ccccc2)n1C (library stock concentration (final ~1000-fold dilution): 10 mM),IRF Lucia reporter activity,RAW-Dual [3]; [4],0.988
same,IRF Lucia reporter activity,RAW-Dual [3]; agonist: LPS (TLR4) 0.1 ug/mL,0.739
Cc1cc(=O)n(-c2ccccc2)n1C,IRF Lucia reporter activity,RAW-Dual [1]; [5],0.987

# From the supplement of paper PMC10037445
